# Test results published in article PMC4336329 (PLoS ONE, 2015).
# Among all 310,000 compounds or so, about 2,200 (0.71%) showed an effect of 50% or more. Effects have a minus sign here. Some of the results follow.
# Target: human ether-à-go-go-related gene (hERG) potassium channel (human, UniProt Q12809)
# Test: primary screen, population patch clamp on CHO cells stably expressing hERG
# Sequence of human ether-à-go-go-related gene (hERG) potassium channel (Q12809 whole entry, looked up): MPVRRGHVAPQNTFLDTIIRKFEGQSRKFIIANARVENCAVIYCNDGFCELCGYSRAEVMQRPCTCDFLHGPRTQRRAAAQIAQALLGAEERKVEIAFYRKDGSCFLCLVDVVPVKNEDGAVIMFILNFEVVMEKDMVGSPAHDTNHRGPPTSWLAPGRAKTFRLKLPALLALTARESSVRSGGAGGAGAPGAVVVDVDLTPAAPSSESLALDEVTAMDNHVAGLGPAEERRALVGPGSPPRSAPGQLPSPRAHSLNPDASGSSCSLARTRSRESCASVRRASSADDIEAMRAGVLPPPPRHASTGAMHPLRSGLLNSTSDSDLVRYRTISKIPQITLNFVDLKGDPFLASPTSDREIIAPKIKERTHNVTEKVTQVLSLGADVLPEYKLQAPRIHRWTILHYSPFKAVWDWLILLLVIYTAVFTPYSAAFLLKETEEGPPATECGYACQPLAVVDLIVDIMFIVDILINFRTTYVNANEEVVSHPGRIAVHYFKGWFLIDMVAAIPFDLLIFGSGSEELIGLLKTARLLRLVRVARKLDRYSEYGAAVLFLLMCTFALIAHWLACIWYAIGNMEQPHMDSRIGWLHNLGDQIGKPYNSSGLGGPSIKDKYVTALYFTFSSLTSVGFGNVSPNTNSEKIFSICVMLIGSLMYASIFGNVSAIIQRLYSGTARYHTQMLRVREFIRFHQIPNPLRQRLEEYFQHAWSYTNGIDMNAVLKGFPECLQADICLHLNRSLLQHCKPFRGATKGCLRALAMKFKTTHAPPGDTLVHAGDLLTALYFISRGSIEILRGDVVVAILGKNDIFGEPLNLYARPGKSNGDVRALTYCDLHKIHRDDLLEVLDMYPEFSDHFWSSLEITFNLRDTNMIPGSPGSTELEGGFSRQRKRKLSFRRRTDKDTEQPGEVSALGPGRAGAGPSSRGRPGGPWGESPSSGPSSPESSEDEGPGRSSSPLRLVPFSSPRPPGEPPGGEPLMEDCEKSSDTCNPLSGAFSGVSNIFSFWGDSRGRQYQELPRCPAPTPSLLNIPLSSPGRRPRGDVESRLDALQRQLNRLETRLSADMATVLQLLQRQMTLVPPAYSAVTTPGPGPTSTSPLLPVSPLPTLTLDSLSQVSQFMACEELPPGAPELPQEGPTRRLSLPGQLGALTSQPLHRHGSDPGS
row,Compound,"hERG current change (%, negative = inhibition) at 1uM"
1,CCn1c(C)cc2c(c1=O)C(c1ccccc1Br)C(C#N)=C(N)O2 (stereo not shown),8.2%
2,COc1ccc(N2CCOCC2)c(NC(=O)c2cc3ccccc3o2)c1,3.34%
3,Cc1ccc(-n2nc(C)c3c(C)onc3c2=O)cc1,10.6%
4,CCN(CCCNC(=O)CNC(=O)c1nn(-c2ccc(OC)cc2OC)c(=O)c2ccccc12)c1cccc(C)c1,-0.562%
5,O=C(CCC(=O)OCc1ccc(C(=O)Oc2ccccc2)cc1)Nc1cccc2ccccc12,4.78%
6,O=S(=O)(NCCC1CC1(Cl)Cl)c1ccc(Cl)cc1 (stereo not shown),5.55%
7,COC(=O)[C@H](C)NC(=O)Nc1cc(Cl)ccc1C,5.35%
8,CC12CC[C@H]3[C@@H](CCC4(O)C[C@H](O)CCC34/C=N/NC(=O)c3ccccc3Cl)C1(O)CCC2C1=CC(=O)OC1 (stereo partly shown),11.1%
9,Nc1ccc(-n2c(N)c(C(=O)NCc3ccc4c(c3)OCO4)c3nc4ccccc4nc32)cc1,11.6%
10,CCCCOC(=O)CSc1nnc(N)s1,3.2%
11,CCCC(=O)Nc1nnc(CCc2ccccc2)s1.Cl,12.1%
12,Cc1cccc(-n2c(CNC(=O)c3cccc([N+](=O)[O-])c3C)n[nH]c2=S)c1,21.9%
13,CC1(C)NC(=O)N(CC(=O)N2CCN(c3cccc(Cl)c3)CC2)C1=O,6.12%
14,CCn1nc(NS(=O)(=O)c2ccc(NC(C)=O)cc2)c2cc3ccccc3nc21,14.3%
15,CSCCC(NC(=O)COc1ccccc1)C(=O)N1CC(C)CC(C)C1 (stereo not shown),3.98%
16,COc1ccc(N2CCN(CCNC(=O)C3CC(=O)N(C4CCCC4)C3)CC2)cc1 (stereo not shown),8.47%
17,Cc1ccc(C)c(C(=O)CCC(=O)NCc2ccc(Cl)cc2)c1,11.8%
18,COc1ccccc1CNC(=O)c1ccc(NS(=O)(=O)c2cccs2)cc1,8.66%
19,O=Cc1ccc(OCCOc2ccc([N+](=O)[O-])cc2)cc1,12.8%
20,CN(C(=O)COC(=O)/C=C/c1ccc2ccccc2n1)C1CCS(=O)(=O)C1 (stereo not shown),12.9%
21,Cc1ccc(/C(N)=N/OC(=O)CN(C)S(=O)(=O)c2ccc(C)cc2)cc1,17.5%
22,Cc1ccc(NC(=O)c2cc(-c3ccco3)on2)cc1C,18.1%

row,Compound,"hERG current change (%, negative = inhibition) at 1uM"
1,CCCCCn1c(=O)c2ccccc2n2c(CCl)nnc12,-1.66%
2,O=c1cc(-c2ccccc2)c2ccc(O)cc2o1,5.92%
3,CCOCCCNC(=O)c1cc2c(=O)[nH]c3ccccc3c2s1,10.1%
4,CCOc1ccccc1N=Nc1c(C)[nH]n(C(N)=S)c1=O,17.8%
5,O=c1[nH]c(=O)n(Cc2ccco2)c(O)c1C=NCCN1CCOCC1,16%
6,Cc1c(Cl)cc(-n2cnnn2)cc1[N+](=O)[O-],1.15%
7,O=C(COC(=O)CCC1CCCC1)Nc1ccc(F)cc1Cl,5.5%
8,CN1C(=O)N(C)C2(c3ccccc3)NC(=O)NC12c1ccccc1 (stereo not shown),11%
9,CCOC(=O)C1CCN(S(=O)(=O)c2ccc(OC)c(Cl)c2Cl)CC1,3.11%
10,CC1CCN(c2ccccc2NC(=O)c2ccc(N3CCOCC3)c([N+](=O)[O-])c2)CC1,-9.35%
11,CCOC(=O)c1cc2c(ccn2C)n1CC(=O)N1C(C)CCCC1C (stereo not shown),-1.86%
12,O=Cc1c(C(=O)O)n(Cc2ccccc2Cl)c2ccccc12,18.5%
13,CCOc1cc(NC(=O)c2ccccc2C)c(OCC)cc1NC(=O)C1=Cc2ccccc2OC1,9.16%
14,CC(=O)Nc1cc(C(=O)OCC(=O)c2ccccc2)ccc1C,18.7%
15,O=C(COC(=O)c1ccc(NS(=O)(=O)c2cccs2)cc1)NCc1ccco1,9.44%
16,COC(=O)c1ccc2c(=O)n(CCCCCC(=O)NC(C)C)c(=O)[nH]c2c1,-15.2%
17,CC(=O)c1cccc(NC(=O)c2ccc(N(C)S(C)(=O)=O)cc2)c1,9.32%
18,CC1Cc2ccccc2N1C(=O)COC(=O)c1ccccc1NCCO (stereo not shown),12.2%
19,COc1cccc(OCc2cc(C(=O)N(Cc3ccccc3)CC3CC3)no2)c1,15.2%
20,COc1cccc(NC(=O)C2CCN(S(=O)(=O)c3ccc4c(c3)NC(=O)CO4)CC2)c1,13.5%
21,CNCc1cn2cc(Cl)ccc2n1,10.4%
22,COC(CSc1ncnc2c1oc1nc3c(cc12)COC(C)(C)C3)OC,-1.17%

row,Compound,"hERG current change (%, negative = inhibition) at 1uM"
1,CC(C)(C)NC(=O)COC(=O)CNC(=O)c1cc(Cl)cc([N+](=O)[O-])c1,16.5%
2,CN(C)c1ccncc1C(=O)Nc1ccc(F)cc1F,-0.0931%
3,CCC(C)NC(=O)COc1ccc(OCc2ccccc2)cc1 (stereo not shown),15.5%
4,CC(=O)c1ccc(NC(=O)c2cc(CC(C)C)nc3ccccc23)cc1,12.1%
5,Clc1nc(Cl)nc(-c2cn(-c3ccccc3)c3ccccc23)n1,8.15%
6,CN(C)C(=O)NC1c2ccccc2-c2ccccc21,19.2%
7,Cc1nn(C)c(C)c1C(C)NC(=O)c1cc(COc2ccc(F)c(F)c2)on1 (stereo not shown),8.84%
8,COc1ccc(CN2CCN(c3ccccc3F)CC2)cc1O,-51.2%
9,COc1ccc(N2CCN(c3ncnc4sc(C(=O)NCC5CCCO5)c(C)c34)CC2)cc1 (stereo not shown),-11.6%
10,Cc1ccc(OCCCC(=O)NC(C)c2ccccc2)cc1 (stereo not shown),8.76%
11,CC(Oc1ccccc1)C(=O)N=C1SC2CS(=O)(=O)CC2N1Cc1ccccc1 (stereo not shown),8.74%
12,C=C[C@@H]1c2ccccc2N(S(=O)(=O)c2ccc(C)cc2)[C@H](c2ccccc2C(F)(F)F)C1(C#N)C#N,14.9%
13,CCn1c(SCC(=O)N2CCc3ccccc32)nnc1-c1ccco1,11%
14,CCOc1ccc(CCNC(=O)COC(=O)c2ccc(C)s2)cc1OCC,17.2%
15,COc1ccc(Cl)cc1NC(=O)C(C)N1CCc2ccccc21 (stereo not shown),8.81%
16,CCN(CC)CCn1c2c(c(SCC(=O)Nc3ccc(C)c(F)c3)nc1=O)CCC2,-23%
17,COC(=O)c1cc(S(=O)(=O)NCCc2sccc2C)c[nH]1,13.5%
18,CC1CCCN(c2ncnc3c2cnn3-c2ccccc2)C1 (stereo not shown),11.7%
19,COc1ccc(OC)c(-c2csc(NC(=O)Cc3cc(OC)c(OC)c(OC)c3)n2)c1,8.86%
20,Cc1ccc(-c2nc(CS(=O)CC(=O)NC3CC3)c(C)o2)cc1 (stereo not shown),17.1%
21,COc1ccc(C(=O)c2oc3ccc(OC)cc3c2NC(C)=O)cc1,18.5%
22,COc1cccc(NC(=O)Nc2cccc(C)n2)c1,21.6%

row,Compound,"hERG current change (%, negative = inhibition) at 1uM"
1,COC(=O)c1ccccc1S(=O)(=O)NCc1nc2nc(C)cc(C)n2n1,4.57%
2,N/C(=N\OC(=O)c1ccc(Cl)cc1Cl)c1ccccn1,-4.39%
3,Cc1ccc(OCC(=O)N(Cc2ccccc2)C2CCS(=O)(=O)C2)c([N+](=O)[O-])n1 (stereo not shown),-0.248%
4,COc1cccc(NC(=S)NC(=O)Cc2ccc(Cl)cc2)c1,14.1%
5,O=C(Nc1ccc(O)cc1C(=O)O)c1cccc(Br)c1,12%
6,CC(C)(C)n1nnnc1C(c1ccccc1)N1CCc2ccccc2C1 (stereo not shown),15.7%
7,O=C(CCc1c[nH]c2ccccc12)NCc1cccc(Cl)c1,6.41%
8,CC1CN(C(=O)N2c3ccccc3Sc3ccccc32)CC(C)O1 (stereo not shown),11.5%
9,CCc1ccc(C(=O)Nc2nc(C)cs2)s1,5.16%
10,Brc1ccccc1CN1CCC(N2CCCCC2)CC1,-3.6%
11,COc1ccc2c(C=O)c[nH]c2c1,6.81%
12,O=C(CN1C(=O)NC2(CCOc3ccccc32)C1=O)NCC(F)(F)F (stereo not shown),14.7%
13,Cc1ccc(S(=O)(=O)N(C)/N=C/c2ccc(C(=O)O)cc2)cc1,8.19%
14,O=C(N/N=C/c1ccc(N2CCOCC2)cc1)c1ccncc1,10.4%
15,CCOc1ccc(S(=O)(=O)N2CCC(C(=O)NCc3ccccc3CN3CCCC3)CC2)cc1,-26.3%
16,C=C(C)[C@@]12OC3(c4ccccc4)O[C@@H]1C1[C@@H]4O[C@]4(CO)[C@@H](O)[C@]4(O)C(=O)C(C)=C[C@H]4[C@@]1(O3)[C@H](C)[C@H]2OC(=O)/C=C/C=C/c1ccccc1 (stereo partly shown),9.22%
17,CC1(C)C[C@@H](O)CC2(C1)C[C@]1(C)CC(O)[C@H]2C(C)(C)C1 (stereo partly shown),10.7%
18,CCN1C(=O)c2ccc(C(=O)Nc3cccc(C(=O)O)c3)cc2C1=O,13.2%
19,COc1cc(CN2CCCC(N3CCN(c4ccc(F)cc4)CC3)C2)ccc1F (stereo not shown),-37.9%
20,Cc1sc2ncn(CC(=O)N3CCCCC3)c(=O)c2c1S(=O)(=O)N1CCC(C)CC1,10.8%
21,CNC(=O)N(C1=NCC(C)S1)c1ccc(F)cc1F (stereo not shown),-4.87%
22,COC(=O)C1=CN(C(C)C)C=C(C(=O)OC)C1c1cccc(OC)c1,7.57%
